Data on 22 molecules can be found in publication PMC12136788.

T1: UNK ZnF1-6 (called full-length) (human, UniProt Q9C0B0 30-357)
T1 sequence: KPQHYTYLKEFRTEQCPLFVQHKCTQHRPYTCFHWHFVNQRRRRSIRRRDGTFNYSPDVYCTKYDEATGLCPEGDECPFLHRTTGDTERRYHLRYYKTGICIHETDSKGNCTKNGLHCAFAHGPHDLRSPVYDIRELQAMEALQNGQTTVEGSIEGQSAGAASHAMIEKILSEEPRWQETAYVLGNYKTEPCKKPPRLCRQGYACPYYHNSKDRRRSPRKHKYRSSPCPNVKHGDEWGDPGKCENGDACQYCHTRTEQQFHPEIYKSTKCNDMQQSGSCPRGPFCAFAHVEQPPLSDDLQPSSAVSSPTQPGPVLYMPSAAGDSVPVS

B1: chr2:189033597:189033698:-|3pUTR|ENSG00000204262|msi1|total|mutant (ssRNA)
RNA: GGGAGUUCUACAGUCCGACGAUCAAGAGUGGGGUAUACCGAGCCACAACACAUGUUUAUUUUGCUUGGCUGCAGUUGAAAAACCGAAAUCCGUGCCCUUUUGUGACCUCUCAUUCCAAGAUUGUCAAUUAAAAAUGAGUUUAACAACAGAGGAUUGAGCAUCA
B2: chr8:8785477:8785578:-|3pUTR|ENSG00000147324|msi1|FALSE|unique (ssRNA)
RNA: GGGAGUUCUACAGUCCGACGAUCUGUUUAUCUUUAUUUUUAUAAUAUGCAAAUACAUUUAAAUUUAUACAGUUUGAAGCUUCUAGCGUUAGUUCACACUGGGUGCAAUAUUCUGCAUGAGAACUGUGCCAAGAUGGGGCUGAUCAACAGAGGAUUGAGCAUCA
B3: chr21:46004801:46004902:+|3pUTR|ENSG00000142156|msi1|total|mutant (ssRNA)
RNA: GGGAGUUCUACAGUCCGACGAUCAGACUGGGGCCUGGACUGGACAUGAGAGCCCCUUGGUGCCACAGAGGGCUGUGUCUUACCCGAAACAACGCAAACCUCUCCUUCCUCAGAACCGUGAUGUGUUCGACGUUUUAUCAAAGGCAACAGAGGAUUGAGCAUCA
B4: chr1:23559171:23559278:-|CDS|ENSG00000117318|unk|total|mutant (ssRNA)
RNA: GGGAGUUCUACAGUCCGACGAUCAACCACUGCUACUCCCGCCUGCGGGAACUGGUACCCGGAGUCCCGAGAGGCACUCAGCUCCGCCAGGUGGAAAUCCUACAGCGCGUCAUCGACUACAUUCUCGACCUGCAGGCCGUCCUGCAACAGAGGAUUGAGCAUCA
B5: chr17:80395157:80395266:+|3pUTR|ENSG00000173821|unk|total|mutant (ssRNA)
RNA: GGGAGUUCUACAGUCCGACGAUCCUUCAAAGCCUUAACUGUCAAAUCUUGCAUUAUCUUGUUUGUACAGAAAUAUACUGGCCCCGCAGAGGCAAAAAAAAAAAAAAUGAAUUUUAUUUUACUUGUCACACCUGUCUUAAUAAACAACAGAGGAUUGAGCAUCA
B6: chr2:37644049:37644150:-|3pUTR|ENSG00000163171|msi1|total|mutant (ssRNA)
RNA: GGGAGUUCUACAGUCCGACGAUCUCCGGACAACUAACCAAGCCGACGAAACAAGUUCCCCCCGGCAGGGGUGUCCAAUAUUUCCGCUUCCCUGGACCGCAUUGGAAGAAUUUUCUUGGGCCACAUGUAAAACACACUAACACUCAACAGAGGAUUGAGCAUCA
B7: ENSG00000119396:stop:overlap|stop_codon|ENSG00000119396|stop_codon|NA|stop_codon (ssRNA)
RNA: GGGAGUUCUACAGUCCGACGAUCCCCCGCAGGGAGGCCGGCUAACCAGUGAACCCCAACCCCAGAGAGAAGGCUGUGGCUGCUAGUGACCUCUUUGCUGUGGCCCCUCAUUUGACCUUUCACCUCUGUCUGUUGGAAGCAGUACAACAGAGGAUUGAGCAUCA
B8: chr1:32196777:32196878:+|3pUTR|ENSG00000084652|msi1|total|mutant (ssRNA)
RNA: GGGAGUUCUACAGUCCGACGAUCUUUGAAGCCCGUUCAUUGUCCUGCAGGUCCCUUCAUCUUCCAUACCCCGCCCACUCUUUCCGCCCUUACCUUAAAUCUCUCAGAUAAGUUGGUUCACAAAGAAUGUUAAGUACUGAAUCACAACAGAGGAUUGAGCAUCA
B9: chr16:46702281:46707703:-|three_prime_utr|ENSG00000140795|control|control|control (ssRNA)
RNA: GGGAGUUCUACAGUCCGACGAUCUCACUACGUGUGAAAUGCUCUGAGUACCUUUCAAAUAUACCUACUUUUGGUGGUAAGUGUAGGGAUGCUUUAGGUAGGUACUUUGCAUCUGUCGAAUUUAAAUUCUAAACUCACACUGAUCAACAGAGGAUUGAGCAUCA
B10: chr3:152464585:152464701:+|3pUTR|ENSG00000152601|msi1|FALSE|unique (ssRNA)
RNA: GGGAGUUCUACAGUCCGACGAUCAUAUUUUUGAAAUCCCUGAGUAUCAGGCCUUGUUAUAAAUAAGCUGCAUAAUCAAUAAAUAGAACAAGGGACUUUUUGUUGAUAAUCCAAAUACUCAAAGUUUACGUAAUGAAAAUUAUACAACAGAGGAUUGAGCAUCA
B11: ENSG00000124766:be:win_3701|3pUTR|ENSG00000124766|bound_else_gene|NA|bound_elsewhere_windowed (ssRNA)
RNA: GGGAGUUCUACAGUCCGACGAUCUCAGGUUUAUAGCUGUUGUGUUUAAAAAUUGAAAAAAGUGGAAAACAUCUUUGUACAUUUAAGUCUGUAUUAUAAUAAGCAAAAAGAUUGUGUGUAUGUAUGUUUAAUAUAACAUGACAGCAACAGAGGAUUGAGCAUCA
B12: chr18:70325936:70326038:+|CDS|ENSG00000170677|unk|FALSE|unique (ssRNA)
RNA: GGGAGUUCUACAGUCCGACGAUCAGCUUUCGCUCCCAUGGUAAAACACUUCACACUAGAAUUGAGCACUCAAAUGGUAGGUUUAGCUUUUAUGAACAGCCAGAUGUGGAAGGACAUACGUCCAUAGUUGAUCUAAUUGAGCAUCAACAGAGGAUUGAGCAUCA
B13: chr16:1999495:2000256:-|CDS|ENSG00000167962|control|control|control (ssRNA)
RNA: GGGAGUUCUACAGUCCGACGAUCUGGCACCGCCCCCACCAGCCUUGUCUCUGCCUGGAACAGCAGCAGUAGCAGCAAGAAGGUAGCACAGCCCCCACUCUCGGCGCAGGCUACCGGCAGCGGCCAGCCCACCAGGAAGGCUGGCAACAGAGGAUUGAGCAUCA
B14: ENSG00000198589:be:win_8851|3pUTR|ENSG00000198589|bound_else_gene|NA|bound_elsewhere_windowed (ssRNA)
RNA: GGGAGUUCUACAGUCCGACGAUCUUAUUCCAGCUAUAAUAUUAUGAAGAACAUUUCCCAUGCAUCUACAAGCUUGAGAAAUAGGAUUUUCACAGUGGGGAAGUGGGUUACAAUAUUGGAAUAGGAAAAUUUGAUGCUGUAAUUCAACAGAGGAUUGAGCAUCA
B15: chr7:5620113:5620210:-|3pUTR|ENSG00000011275|msi1_unk|FALSE|overlapping (ssRNA)
RNA: GGGAGUUCUACAGUCCGACGAUCGUCACUUUGUAUAAAAACAAGAAACGAUUAGUUCAUUAAACUUUUUCUUUACCUUCUGGUAGUAAAAAUAGAUAAAAUAAUUCCGUUUCAACUACUGUGUGUAAAAAGCCUGUAUCAUAUCAACAGAGGAUUGAGCAUCA
B16: chr1:43978039:43978149:+|3pUTR|ENSG00000117410|unk|total|mutant (ssRNA)
RNA: GGGAGUUCUACAGUCCGACGAUCGGCCGUGCCUCACUUUUAUUUAUUGCUGGUUUUCCUGGGACAGCUGGAGCUGUGUCCCUCCGCCUUUCAGAGGCUUGGUGUUCAGGGCCCUCCCUGCACUCCCCUCUUGCUGCGUGUUGACAACAGAGGAUUGAGCAUCA
B17: chr7:92141642:92142809:-|three_prime_utr|ENSG00000240720|control|control|control (ssRNA)
RNA: GGGAGUUCUACAGUCCGACGAUCAACAGUUUCUUUUGGAUCUUUUUGCAGAGCUACUAUGGAAGAUGCACUCUUUCUGCGGGUAGGUUAUGAGUCUUUUAGUCUUGGUAUAUCAUGCACAGUGUGUAGUAGUCUGCCGAGAGCCAACAGAGGAUUGAGCAUCA
B18: chr16:2457226:2457327:+|3pUTR|ENSG00000162063|unk|FALSE|unique (ssRNA)
RNA: GGGAGUUCUACAGUCCGACGAUCCAAGCCAUCAGAAUGUUGAAAUGAGGGUGAAGAGCUCAGAUCCCUCUCUUUGGAAAGUUUAGCCUGGAAGCAGUUGGCCACACUGUGUGGAGGGCACCUCUCUGUCCCUUCCGUGUCUCACAACAGAGGAUUGAGCAUCA
B19: chr12:57820040:57820141:-|3pUTR|ENSG00000175215|msi1|total|mutant (ssRNA)
RNA: GGGAGUUCUACAGUCCGACGAUCUUUUGCUUAUCAUGUUCCAUUUCGUGCCGCUUUCCCCCUUCAAGAUGCCAUUUGGAGGGCCGGGGAUCUGCUUCCCACUGUGACUGGGCUAUGGGAUUCUGACUACCUUGCUUACAGAUUCAACAGAGGAUUGAGCAUCA
B20: chr5:80437677:80437780:+|CDS|ENSG00000039319|unk|total|mutant (ssRNA)
RNA: GGGAGUUCUACAGUCCGACGAUCUUCCUUUCAGGAAGAUAAGACUGUUAUAAAACAAUCUGCACAAGAAGACUCAAAAAGUUCCGACCUUAAGGAUAAUGAUGUAAUCCAAGAUUCCUCUUCAGCUUUACAUGUUUCCAGUAACAACAGAGGAUUGAGCAUCA
B21: chrX:50386357:50386586:-|CDS|ENSG00000274588|control|control|control (ssRNA)
RNA: GGGAGUUCUACAGUCCGACGAUCAGAAUAUGCAGACAGCAGCAAGGCAGAUAGGAAGCCCUUCAUUCCUCAAAUAGACCACAUAGCCAAGUGCAAGUUGGAGCUGGCUACAAAGGCCCAGAGUCUCCAGAAAUCCUUGAAACUCAACAGAGGAUUGAGCAUCA
B22: chr11:8104520:8104621:+|3pUTR|ENSG00000166402|msi1|FALSE|unique (ssRNA)
RNA: GGGAGUUCUACAGUCCGACGAUCGGCAAUCAGCAAUCAACUGAGGUUUCUUAAUUGUGAUUAUAUUCCUGAGAAUGAAUGAGUAGGAAAGGAAUAAGGAUGUUGUUAUGAUCGCCUGUGGAUUUUGUCCAUUCAUCUCAUGCUCAACAGAGGAUUGAGCAUCA

The list shows a part of the results.

The experiment concerns the target T1, UNK ZnF1-6 (called full-length). The experiment can be described thus: nsRBNS (natural sequence RNA bind-n-seq); RBNS binding buffer (assumed for nsRBNS): 25 mM Tris pH 7.5, 150 mM KCl, 3 mM MgCl2, 0.01% Triton X-100, 500 ug/ml BSA, 20 U/ml SUPERase-In, 4 C; UNK is unkempt and MSI1 is Musashi-1; names of the RNAs are library labels; protein concentration not given here; high values mean tight binding.
The molecule B1 gave a binding signal of 0.364 enrichment R.

With B2, the binding signal amounted to 0.688 enrichment R.

Regarding B3, the binding signal was found to be 0.902 enrichment R.

In turn, B4 had a binding signal of 0.768 enrichment R. As for B5, the binding signal worked out at 0.678 enrichment R.

With B6, the binding signal stood at 0.537 enrichment R. Take B7: the binding signal amounted to 0.836 enrichment R. Then B8, with 0.657 enrichment R; and B9, with 0.371 enrichment R.

Molecule B10 came in with a binding signal of 0.571 enrichment R. Consider B11, for which the binding signal was 0.65 enrichment R. The same measure for B12: 1.06 enrichment R; for B13: 0.776 enrichment R; for B14: 0.666 enrichment R.

Consider B15, for which the binding signal turned out to be 1.37 enrichment R. Then B16, with 0.779 enrichment R; and B17, with 0.61 enrichment R; and B18, with 0.508 enrichment R. Then B19, with 0.685 enrichment R. Molecule B20 yielded a binding signal of 0.323 enrichment R.

On to B21, for which the binding signal worked out at 1.56 enrichment R. Then B22, with 0.31 enrichment R.
